The full ranking holds about 33,000 sequences; the median of “E-score (-0.5 to 0.5)” is about -0.04, and the highest 2% start at about 0.36. The list shows a part of the results.
molecular target: T1, Hmlalpha2 (UniProt P0CY09); experiment: PBM E-score (8-mer binding enrichment) (E-score (-0.5 to 0.5)); higher = stronger / more preferred TF binding; most listed sequences are background and not binding sites; conditions: protein concentration: 200 nM; construct: GST-full length
T1 sequence: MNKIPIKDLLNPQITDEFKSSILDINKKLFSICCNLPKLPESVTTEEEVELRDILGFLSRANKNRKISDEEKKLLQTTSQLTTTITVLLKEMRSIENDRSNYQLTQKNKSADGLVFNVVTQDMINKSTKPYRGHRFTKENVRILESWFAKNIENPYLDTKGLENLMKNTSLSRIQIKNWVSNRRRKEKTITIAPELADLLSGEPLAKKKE
Method in brief: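 Yeast transcription factors, full-length or as DNA-binding domains, were expressed with a GST tag using PURExpress in vitro transcription/translation. At about 100-200 nM they were applied to universal all-10-mer Agilent arrays, double-stranded by primer extension on fresh or once-stripped slides. Fluorescent anti-GST detected bound protein, and masliner normalised the scans. E-scores for ungapped eight-base words, pooled with reverse complements, came from the Universal PBM Analysis Suite.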

Sequence	PBM E-score
ATCTGATC	0.0656
CCGTCGCC	-0.338
ACGGACTA	-0.0398
AAACAGAC	0.116
GGTGAATA	-0.0571
CGCTTAAG	-0.0159
GCGTACTA	0.208
AAGACGAT	0.0721
ATGAGCAA	0.0378
AGCGCGCC	-0.274
CACTAACC	-0.0939
AGGACAGC	-0.143
GACACCCC	-0.202
CGAAGTGA	-0.0369
ACAAGTGA	0.144
GCACGAGC	-0.168
ACGTTCGG	-0.313
AGAAACAT	0.294
GCATAGAC	-0.0786
AGGGACCA	-0.213
GCTCCGCC	-0.322
ACTGTTAG	-0.13
AGTCTACC	-0.249
AGAAACTC	-0.0164
CCGGTCAC	-0.194

Sequence	PBM E-score
CTCAACTC	-0.13
ACCATCGG	-0.239
AGCGCACT	-0.225
GCTACTCA	-0.0384
ATACAGGA	0.0227
AACGATCT	-0.0798
ACCGCGTA	0.353
CCAACGGA	-0.242
AAATCATG	0.194
CCGTAAAG	0.0757
GGCGCCCA	-0.178
CTGGTGGA	-0.228
CTTTTCAA	0.0683
GGAGCCCC	-0.314
CAAAGAGC	-0.142
ATTCAGCA	0.051
GAGGTTAC	0.0883
CGTAGACA	0.108
TGCCCCAA	-0.104
CCTTGTGC	0.0153
CGCCGAGC	-0.112
GAAAATAC	-0.0131
CAGTATAC	0.11
AACGAATG	-0.0428
CAAATACG	0.177

Sequence	PBM E-score
CGGGGTTC	-0.335
GGGGGAAA	-0.291
CTAAATGC	-0.0507
AAAGGGAA	-0.0413
CAACAGAA	0.0264
ATTAGAAG	-0.08
AGGTTGCA	0.149
ATCCGAGG	-0.139
AAATCGAA	-0.0852
CAGACAAG	-0.0236
GATGGTTA	-0.0146
CCAGGAGG	-0.191
CAGGCCAG	-0.243
ATGCGAAG	0.0105
CCAAAATA	0.0469
AATCGATG	0.177
AAAGGTAC	0.0621
TCCCCCGA	-0.371
ATACTGAG	0.114
CATGTCAC	0.245
AGACTGCA	-0.13
AGCAGGTC	-0.0501
CCAGGATC	-0.238
ATCACTCG	-0.119
AGCTGCAG	-0.168

Sequence	PBM E-score
CCTAAAGG	-0.265
GTTTTAGA	0.0961
CATCTGTC	-0.311
CCAGTCCA	-0.37
CCCAAATC	-0.104
AACAGGAA	0.208
ATGTTAGA	0.358
CTATTATA	0.0386
CCTCCGAC	-0.259
GGAGCGCC	-0.443
CCACTACC	-0.291
CCCGAGCC	-0.278
CTAACACA	0.376
GCTCCTTA	-0.172
TCGCCCCA	-0.165
AACTACGA	0.167
AAGCACTA	0.107
CACTAGGA	-0.225
TATTGGCA	0.0557
GTAGATTA	0.343
CTAGACAC	0.185
CCTAATTC	-0.0244
ATAGGCTA	-0.13
AAAAACCG	0.11
TGCAGGAA	-0.0766

Sequence	PBM E-score
AAGACGGA	-0.155
CTCGACCC	-0.0619
TATCTGAA	-0.064
GAAGAGAA	-0.234
ATAGGAGC	-0.0655
AATTTCGA	0.113
AACAGTTC	0.0308
CTCTTTGC	-0.182
GTTAACAA	0.366
GGACCCCA	-0.164
ACCTCTAC	0.072
CGGTGCAG	-0.207
CAACTTTC	-0.149
GAGAGGTA	-0.241
CGTAACCC	0.0355
AATACTTC	0.021
ACATCGTC	0.0921
CATTGTCC	0.0221
GCGCCAAA	-0.182
GTCGCACA	-0.0117
GCCTCCGC	-0.217
ACTCGACG	0.16
CCTCGGAC	-0.315
GCCGTCCC	-0.192
CCGATTAA	0.106

Sequence	PBM E-score
CATATGGG	-0.201
AGATGCCT	0.00433
CAAATCAC	-0.0967
AGTAAACG	0.156
CGATGAAA	0.0433
AGGGGCGG	-0.305
ATAGCTGG	-0.121
ACCTAGCG	0.0123
CAATAGGG	-0.0586
CGAGTCCC	-0.234
ACATTGTC	0.275
AAACCCAC	0.0656
CCGCTGTC	-0.123
CACGTAAG	0.244
AAGCCTGC	-0.0985
CCAGCAAA	-0.109
TATACCGA	-0.0588
ATTGACAA	0.269
AAATACTA	0.16
AAATTTGC	-0.00054
GTCTGGTA	-0.079
TCTACCCA	-0.108
GGCTCGAA	-0.149
GATGAAGC	-0.157
GAGGACCC	-0.195

Sequence	PBM E-score
ATAATCAG	0.133
CATGGGTA	0.129
CGTATGAC	0.222
AAAAATTC	0.179
ACACGTTA	0.408
AAAAGCAC	-0.209
ACCATAGC	-0.191
TAACAACA	0.335
CTTGTTGC	0.189
ATTAGCCG	-0.0931
CACGTGCG	0.133
CACCTCCA	-0.063
ATGTAGAC	0.391
ATAGTTAG	-0.123
GTATTGTA	0.322
TAGGATGA	-0.088
AGCTCTAA	-0.136
CTCAAGAG	-0.366
AGACACCT	-0.146
CACTAATA	0.146
AGCATGCA	0.023
CCTTACCG	-0.0286

Reference: the supplement of paper PMC3334620
